# According to PubChem BioAssay AID720709 (National Center for Advancing Translational Sciences (NCATS), 2013):
# About 520 (0.14%) of roughly 360,000 compounds were called active. The inconclusive results got no clear call from the source; some entries with a clear call stand among them for comparison. Calls follow the shape of the dose curve; as a rule, active = well fitted inhibition curve with a large enough effect; inconclusive = small, poorly fitted or top-dose-only effect; inactive = no such curve, though single readings can be large or run the other way. Potencies of inconclusive entries are left out as doubtful fits.
# Target: Rap guanine nucleotide exchange factor 3 (Homo sapiens) (UniProt O95398)
# Assay: qHTS for Antagonist of cAMP-regulated guanine nucleotide exchange factor 3 (EPAC1): primary screen; also: nearly all actives have a fitted effect of over 50% in size;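 as to activity change, negative = inhibition: plate controls were vehicle for no effect and positive control for full effect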
# Settings: EPAC1 GEF assay, Rap1b-BODIPY-GDP exchange fluorescence; activity change, negative = inhibition: at 115 µM (top of the series)
# Potency is read from the fitted curve at half-maximal effect; tags tell the direction and shape of the fitted curve.
# UniProt O95398, sequence (O95398 whole entry, looked up): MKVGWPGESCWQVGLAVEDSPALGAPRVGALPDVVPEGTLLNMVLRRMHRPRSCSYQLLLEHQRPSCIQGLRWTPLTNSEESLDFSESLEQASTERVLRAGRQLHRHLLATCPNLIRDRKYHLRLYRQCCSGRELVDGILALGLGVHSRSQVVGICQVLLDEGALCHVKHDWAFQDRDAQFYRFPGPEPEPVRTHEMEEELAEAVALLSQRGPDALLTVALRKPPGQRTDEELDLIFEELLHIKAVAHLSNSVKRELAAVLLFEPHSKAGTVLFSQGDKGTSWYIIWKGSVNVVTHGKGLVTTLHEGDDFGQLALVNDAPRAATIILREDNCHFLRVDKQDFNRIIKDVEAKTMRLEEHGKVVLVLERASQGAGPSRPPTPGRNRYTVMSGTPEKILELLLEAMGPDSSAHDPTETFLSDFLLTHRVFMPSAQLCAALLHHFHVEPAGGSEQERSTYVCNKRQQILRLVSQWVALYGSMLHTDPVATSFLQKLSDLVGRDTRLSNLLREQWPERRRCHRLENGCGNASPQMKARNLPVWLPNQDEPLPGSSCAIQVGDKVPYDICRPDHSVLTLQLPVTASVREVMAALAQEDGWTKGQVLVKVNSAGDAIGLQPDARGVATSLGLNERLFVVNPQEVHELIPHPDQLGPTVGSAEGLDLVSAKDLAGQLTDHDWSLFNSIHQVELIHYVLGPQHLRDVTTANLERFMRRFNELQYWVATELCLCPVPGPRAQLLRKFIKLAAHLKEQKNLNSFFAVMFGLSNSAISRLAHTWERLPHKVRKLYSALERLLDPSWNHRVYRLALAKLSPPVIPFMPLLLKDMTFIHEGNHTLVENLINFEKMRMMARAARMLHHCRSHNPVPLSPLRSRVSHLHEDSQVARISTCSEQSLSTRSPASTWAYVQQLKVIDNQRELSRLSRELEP
SMILES,"activity change, negative = inhibition",Potency
CCOC(=O)C1=CCN(S(=O)(=O)c2ccc(C)cc2)C1c1cccc(Cl)c1 (stereo not given),inactive: -15.6%,–
CCOC(=O)c1sc(NC(=O)c2ccc3nc[nH]c3c2)nc1C,–,"inconclusive [inhibitor, single point]"
CCC(COC)Oc1cc(NCc2ccccc2)c2ncn(C(C)C)c2c1 (stereo not given),–,"inconclusive [inhibitor, full curve]"
C/C(=N\N=C\c1ccccc1F)c1nnn(-c2nonc2N)c1C,inactive: -8.32%,–
Nc1ccc(Sc2ccc([N+](=O)[O-])cc2)cc1,inactive: -12.7%,–
CCOC(=O)c1ccc(NC(=O)COC(=O)Cc2csc(-c3ccccc3)n2)cc1,–,"inconclusive [inhibitor, single point]"
COc1ccc2c(CC(=O)Nc3ccc(OC)nc3)coc2c1,–,"inconclusive [inhibitor, partial curve]"
COC(=O)Cc1c(C)c2ccc(OCC(=O)N(C)C3CCS(=O)(=O)C3)cc2oc1=O (stereo not given),–,"inconclusive [inhibitor, full curve]"
CCc1nnc(NC(=O)c2cc(S(=O)(=O)N3CCCCC3)ccc2N2CCOCC2)s1,–,"inconclusive [inhibitor, single point]"
CC(C)=CCC/C(C)=C/CC/C(C)=C/CC/C(C)=C/CC1=C(C)C(=O)c2ccccc2C1=O,–,"inconclusive [inhibitor, full curve, poor fit]"
CC(=O)c1ccc(OC(C)c2nc3ccccc3s2)cc1 (stereo not given),–,"inconclusive [inhibitor, single point]"
Cc1cc(-c2ccc(Br)s2)nc(-n2cccc2)n1,–,"inconclusive [inhibitor, single point]"
O=C(N/N=C/c1cccc(Oc2ccccc2)c1)c1cccc(O)c1,–,"inconclusive [inhibitor, single point]"
O=C(NCCSc1ccccc1)c1ccccc1F,–,"inconclusive [inhibitor, single point]"
CC1=NN(c2ccc(C)cc2)C(=O)/C1=C/c1ccc(-c2cc([N+](=O)[O-])ccc2O)o1,–,"inconclusive [inhibitor, partial curve]"
O=S(c1ccccc1O)S(=O)c1ccccc1O (stereo not given),–,"inconclusive [inhibitor, partial curve]"
COc1cc(CCC(N)c2cccc(O)c2)cc(OC)c1OC (stereo not given),–,"inconclusive [inhibitor, single point]"
CC/C(C)=N/Nc1nc2c(c(=O)[nH]c(=O)n2C)n1Cc1ccccc1,–,"inconclusive [inhibitor, partial curve, poor fit]"
COc1cc(C2C(C(=O)N3CCOCC3)=C(C)NC3=C2C(=O)CCC3)ccc1OC(C)=O (stereo not given),inactive: -0.804%,–
Cc1cccc(NC(=S)NC(=O)/C=C/c2ccco2)c1,–,"inconclusive [inhibitor, partial curve]"
O=C(O)c1ccn(CSc2cc(Cl)ccc2Cl)n1,–,"inconclusive [inhibitor, single point]"
O=C(CSc1nnc(COc2cccc3ccccc23)o1)N1c2ccccc2CCc2ccccc21,–,"inconclusive [inhibitor, single point]"

SMILES,"activity change, negative = inhibition",Potency
Cn1c(=O)n(C)c2cc(NC(=O)c3cccc([N+](=O)[O-])c3)c(Br)cc21,–,"inconclusive [inhibitor, single point]"
Cc1ccc(-n2sc3ccccc3c2=O)cc1,inactive: -5.62%,–
CCCCC1=CC2=CC(=O)C(C)(OC(=O)CCc3ccccc3)C(=O)C2=CO1 (stereo not given),–,"inconclusive [inhibitor, partial curve]"
NC(=O)c1cccnc1Nc1ccccc1F,inconclusive: -7.5% [inhibitor],–
O=C(C1CC1)N1CCN=C1SCc1cccc(F)c1,–,"inconclusive [inhibitor, single point]"
O=C(c1c(F)cccc1F)N1CCN(c2ncc(Br)cn2)CC1,–,"inconclusive [inhibitor, partial curve]"
Cc1cc(C(=O)COc2cccc([N+](=O)[O-])c2)c(C)n1C1CC1,inactive: -11.3%,–
Cc1cc(C)c(NC(=S)NCCCSC2CCCCC2)c(C)c1,–,"inconclusive [inhibitor, partial curve]"
Cc1ccc(C)c(S(=O)(=O)N2CCC(c3nc4c(nnn4Cc4ccc(F)cc4)c(=O)[nH]3)CC2)c1,–,"inconclusive [inhibitor, single point]"
Cc1cc(NC(=O)CCC(=O)N(c2ccccc2)C(C(=O)NC2CCCC2)c2ccccc2C)no1 (stereo not given),–,"inconclusive [inhibitor, single point]"
CCN1C(=O)C(CC(=O)Nc2cccc(C(C)=O)c2)S/C1=N\c1ccccn1 (stereo not given),–,"inconclusive [inhibitor, single point]"
N=C1/C(=C\c2ccc(-c3cccc(C(=O)O)c3)o2)C(=O)N=C2SC=C(c3ccccc3)N12,–,"inconclusive [inhibitor, full curve, poor fit]"
O=C1C(=Cc2cn(-c3ccccc3)nc2-c2ccc(OCc3ccccc3)cc2)SC(=S)N1CCS(=O)(=O)O,–,"inconclusive [inhibitor, single point]"
COC(=O)c1ccsc1NC(=O)CCc1ccccc1,–,"inconclusive [inhibitor, partial curve]"
CCOC(=O)C1=C(C)NC(SC)=C(C#N)C1CC(C)C (stereo not given),–,"inconclusive [inhibitor, full curve]"
Cc1c(O)nc(SCC(=O)Nc2ccc3c4c(cccc24)CC3)n(-c2ccccc2)c1=O,inactive: 20.7%,–
O=C(Nc1nc(-c2ccco2)c(-c2ccco2)s1)c1ccco1,–,"inconclusive [inhibitor, partial curve]"
O=[N+]([O-])c1ccc(N2CCC(=NOCc3ccc(Cl)cc3)CC2)cc1,–,"inconclusive [inhibitor, partial curve]"
COc1ccccc1-c1nnc(SCC(=O)NCc2c(C)c(Cl)cc(C(C)C)c2O)o1,–,"inconclusive [inhibitor, partial curve]"
COC(=O)Nc1nc(-c2cc(Cl)ccc2Cl)cs1,–,"inconclusive [inhibitor, partial curve]"
CCc1nnc(NC(=O)c2ccc(S(=O)(=O)N3CCCC3)cc2)s1,inactive: 15.4%,–
C[C@@H]1CN([C@H](C)CO)C(=O)CCCn2cc(nn2)CO[C@H]1CN(C)C(=O)Nc1cccc2ccccc12,inactive: 9.96%,–

SMILES,"activity change, negative = inhibition",Potency
C=CC[C@@H](CC(=O)N(CCO)Cc1ccccc1)C(=O)NC[C@H](OC(=O)[C@@H](CC=C)CC(=O)OC(C)(C)C)c1ccccc1,inactive: -29.1%,–
O=C(CSc1nnc2ccccn12)NNC(=O)c1ccc(Cl)cc1,–,"inconclusive [inhibitor, partial curve, poor fit]"
O=C1c2cccc3c(N4CCCCC4)ccc(c23)C(=O)N1c1ccccn1,inactive: 2.31%,–
COCCCn1c(=O)/c(=C\c2cccc(OC)c2OC)s/c1=C(/C#N)C(=O)Nc1ccc(C(=O)O)cc1,–,"inconclusive [inhibitor, partial curve, poor fit]"
COc1cc2c(cc1OC)-c1cc3ccc4c(c3c[n+]1CC2)OCO4,inactive: 6.4%,–
O=C(NNC(=O)c1ccccc1F)c1ccc(Cl)c(S(=O)(=O)N2CCOCC2)c1,–,"inconclusive [inhibitor, full curve, poor fit]"
O=S(=O)(NCC(Nc1ccc(Cl)cc1)c1ccccc1)c1ccc(Cl)cc1 (stereo not given),–,"inconclusive [inhibitor, partial curve]"
Cc1nc2c(C(F)(F)F)cccc2c2c1CCS2,–,"inconclusive [inhibitor, full curve, poor fit]"
Cc1nnc(SCC(=O)Nc2ccc(O)cc2)c2ccccc12,–,"inconclusive [inhibitor, partial curve]"
CN(C)S(=O)(=O)c1cccc(NC(=O)CSc2nc3c(cc2C#N)C(=O)CC(C)(C)C3)c1,–,"inconclusive [inhibitor, partial curve, poor fit]"
O=C(O)c1cc(N/N=C/c2c(O)ccc3ccccc23)ccc1Cl,–,"inconclusive [inhibitor, full curve]"
C[C@]12CC[C@@H]3c4ccc(O)cc4CC[C@H]3[C@@H]1C[C@@H](O)[C@@H]2O[C@@H]1O[C@H](C(=O)O)[C@@H](O)[C@H](O)[C@H]1O,inactive: -11.8%,–
CCCn1c(C)cc(-c2csc(N)n2)c1C,inactive: 13.2%,–
O=c1[nH]c(C(Cl)Cl)nc2sc3c(c12)CCN(Cc1ccccc1)C3,–,"inconclusive [inhibitor, partial curve, poor fit]"
NC(=O)C1=C(c2ccccc2)c2ccccc2C1=O,–,"inconclusive [inhibitor, partial curve]"
O=C(/C=C/c1ccccc1)Nc1ccc(Cl)cn1,inactive: 23%,–
Oc1c(Br)cc(Br)cc1CNc1ccccn1,–,"inconclusive [inhibitor, partial curve, poor fit]"
COCCNc1c(-c2cc3ccc(C)c(C)c3[nH]c2=O)nc2ccccn12,inactive: -5.09%,–
C=C(C)C(=O)Nc1cccc(C2=NOC3(C2)C[C@@H](C(N)=O)N(C(=O)c2ccc(Cl)cc2)C3)c1 (stereo not given in full),inactive: -22.8%,–
O=C(CC(c1ccccc1)(c1ccccc1)c1ccccc1)N[C@@H](Cc1ccc(O)cc1)C(=O)O,–,"inconclusive [inhibitor, full curve]"
CCC(C(=O)NCCCc1ccccc1)n1nc(C)c2c(C)n(-c3ccccc3)nc2c1=O (stereo not given),–,"inconclusive [inhibitor, partial curve]"
